In all, about 33,000 sequences were measured (“E-score (dimensionless, -0.5 to 0.5)”: median about -0.058, highest 2% from about 0.35 on). The list shows a part of the results.
System: MvaT
Assay: PBM 8-mer E-score (mean of HK and ME arrays) (E-score (dimensionless, -0.5 to 0.5)); higher = stronger relative binding preference; most listed sequences are background and not binding sites
Summary of the method: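 Reported values are rank-based E-scores, taken as the mean of two universal arrays and parsed with a custom script. Each 8-mer score falls between -0.5 and 0.5. The arrays, ME and HK, were double-stranded 60-mers with a constant 25-mer primer region and a variable 35-mer region covering all 8-mers. They were probed, by an earlier protocol, with full-length P. aeruginosa MvaT carrying an N-terminal glutathione S-transferase fusion.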

Sequence | PBM 8-mer E-score
CAAACATC | 0.053
AAATAGTT | 0.351
AACGCGCC | -0.137
ACAGGTAC | 0.000213
TATCAGGA | 0.0514
GCGGACGC | -0.276
CCCATTGC | -0.0601
CTCGACTC | -0.141
GAAATTCC | 0.0149
ATGGTAAG | 0.0817
ACCTACAA | -0.0373
GATCACAC | 0.106
GCTGTCAC | -0.214
CGGTTCCA | -0.074
AGGGTTTC | -0.282
CACTCTAG | -0.00622
CCCGGAGG | -0.297
CCTTATTC | 0.189
ACAACGTA | 0.0857
ACACCGCC | 0.0303
AGAACGGG | -0.153
CTGAAAAA | 0.0845
AAATCAAT | 0.254
CGGCCCCG | -0.223
AGGGTTAC | -0.112

Sequence | PBM 8-mer E-score
AGTCCAGG | -0.122
AACAAGAT | 0.164
CAACCGCG | -0.0877
CGATGCAC | -0.128
CTATCTAA | 0.179
GCAGGCAA | -0.0309
AGTTAAAC | 0.242
AACCATGC | 0.0641
ACGGCCAG | -0.203
AAAGTCAA | 0.0934
TAAATGAA | 0.307
GGCCCAAC | -0.222
GCTCTGAC | -0.296
ACCACATG | -0.000124
CCGGAACA | -0.00216
CTGCCAAC | 0.00399
ACTTAGGC | 0.0749
ACCCCGTC | -0.312
CGCGCCAA | -0.0864
TGAAGGAA | -0.11
ACGGGTCG | -0.224
ATATCACC | 0.0631
CCGCAACA | 0.104
CGCATCAG | -0.0967
CCGTTCTA | -0.079

Sequence | PBM 8-mer E-score
ATGTAGCC | -0.0913
ACATTGGA | 0.00833
ACGAAGCT | -0.0324
AGAGCCGC | -0.301
ATTTAATG | 0.376
ATGATCAA | 0.176
GGTCCTAC | -0.157
ATCAACCA | -0.0164
CCGAGCCG | -0.237
CCGGTTAC | -0.0289
AGCGCTGA | -0.188
CATGGCAG | -0.207
GCTGATCA | -0.157
TATTGAAA | 0.235
ATTCTTGA | 0.0466
ATTGCCCG | 0.0369
ACGAAACT | 0.209
AGAGGGCA | -0.141
GCGCCCAC | -0.255
ATAGCGAC | -0.0463
ACATGTCT | 0.0552
AAAGTGAG | 0.0697
ATTCGTCC | -0.154
ATATACGA | 0.323
CGCAGCGC | -0.161

Sequence | PBM 8-mer E-score
GAACCGCA | -0.0436
AACCTAGA | -0.0235
ATGACTGA | -0.0447
AAGCAACG | -0.105
CGCATTCA | 0.0227
GTCTCTTA | 0.0121
CTAGTGGA | -0.157
AATGCTAC | -0.0157
CCTTGGCG | -0.22
CGAATAGA | 0.00156
ACTTATTA | 0.416
ACCAGTTC | -0.15
CATAAGCG | 0.000885
GCACTCGA | -0.153
CTTCCACC | -0.218
CCGGTACG | -0.374
AGGAGTAA | -0.132
GAGCTTAA | -0.0447
ATGCTATG | -0.0899
GCTGTTCC | -0.188
ATCAGGGA | -0.207
AAGTTGGC | 0.172
CGTGTGAC | -0.24
GCCATCCA | -0.185
ATCTAGTA | 0.0157

Sequence | PBM 8-mer E-score
GTCCGTAA | 0.084
CCGGAGAA | -0.235
CATCGAAG | -0.071
AATTCTGG | 0.076
ATTCGTGC | 0.0844
AACAACCC | -0.0267
CTGTCCTA | -0.112
GATTCGTA | 0.0196
ACTAGTCG | -0.0839
CCCCTTAG | -0.251
ACTCTAAG | 0.0181
CGATTGCA | 0.0134
AAGTGCTG | -0.134
AAAGGCTT | -0.0599
AATGTTGA | 0.0817
TGATAGAA | 0.186
GATTCTTA | 0.0999
TCTCCAAA | -0.0267
ACTCATTC | -0.0371
GTATATTA | 0.438
CGCTATCC | -0.149
AGGTCTAC | -0.196
CTACCCTA | -0.137
CCAGACAA | -0.0578
TACTACGA | 0.133

Sequence | PBM 8-mer E-score
TAACCCGA | 0.0362
TCCTCTAA | 0.0632
TAGGGTGA | -0.102
GGTCACAC | -0.173
ACGACTTA | 0.139
GACTGCAC | -0.245
CTGAAGAC | -0.085
CCGAGTAA | 0.013
CAGCACCG | -0.196
AAGGGATC | -0.25
CGGAGATA | -0.0357
AGTCCAGA | -0.101
AGGAGCTA | -0.0876
ATCCCGTA | -0.0399
ATCGGGAC | -0.109
CGTCTCCA | -0.222
ACAAATAC | 0.247
ACATCTTG | -0.000188
AGATATTC | 0.209
AATAAACG | 0.328
CAGAGTGC | -0.202
AGCCTCTA | -0.137
CCCACCCC | -0.408
AACAGGGA | -0.115
CGAATGCA | -0.0445

Sequence | PBM 8-mer E-score
CATGTGTA | 0.0855
AGGCCAAG | -0.132
AGGAGCAC | -0.249
AACCCTAC | -0.0186
ATGGACCC | -0.172
ATTATACG | 0.274
GTTTACAA | 0.154
CTCATTAC | 0.0726
TCCGCCAA | -0.112
GGCATGCA | -0.0713
ACGGCCTC | -0.15
ACTTGCTG | 0.0741
GGCTCGTA | -0.206
AGCGCTGC | -0.264
CAACACAA | 0.164
ATAACATG | 0.235
ACCCAATA | 0.151
CCGACGCA | -0.181
AACCGGAA | 0.0189
GCGCGGCC | -0.244
ACGCCCTG | -0.211
CATGCGCA | -0.0842
AATGGGCT | -0.0758
TGGGGTAA | 0.0888
GCTTTAAA | 0.249

Sequence | PBM 8-mer E-score
AAGAGGGG | -0.237
CCGCGTCG | -0.0685
ATACATAT | 0.394
AATGTAAG | 0.293
ACGCAGGA | -0.268
GATAATAC | 0.301
CCCTCACC | -0.0385
CGCAAATA | 0.181
GGGCGTCA | -0.218
GCCGCCAA | -0.22
GATTTCAC | -0.0165
ACGAAATC | 0.0397
AGTCGAAC | -0.0143
GAACATGC | -0.0289
CAATCGCC | -0.139
AGCGATCG | -0.212
ATCAGCAC | -0.0229
AATTCAAT | 0.294
CAATACGG | 0.0192
CCGTCGCA | -0.136
ACTAGCTC | 0.00464
GCGCGTCA | -0.141
CCGTCTCA | -0.119
AATTTATA | 0.46
CATGAAGG | -0.184

Sequence | PBM 8-mer E-score
ATTGGAGG | -0.0643
CATTCGGG | -0.0224
AGCAAGTG | 0.016
CTTGTTAC | 0.143
ATGGTTAA | 0.236
ATGCGACC | -0.244
CGACTACC | -0.19
GCATCCAA | -0.0952
AAGGCCTT | -0.0932
ATCTCGGG | -0.161
GCAGACCA | -0.131
ACGCGACA | -0.0585
GCACTTTA | 0.14
ACTCCTGC | -0.156
AAGCAGAG | -0.172
GTTTACCA | 0.0668
ATCGATAG | 0.147
CATCTTAG | -0.0403
ATCACCTC | -0.0894

Reference: the supplement of paper PMC4466236
